Consider 1 substance from patent US20050059584A1, “Novel chemokine mimetics synthesis and their use” (priority 2002, published 2005).

Positions of bridges follow the written chain, without caps; N, C: chain ends.

Series [1] deals with Primitive Erythroid bone marrow progenitor cells. The experiment in a line: 3H-thymidine killing of primitive erythroid bone marrow progenitor cells. It is filed as cell-based, human. To be noted: Table 5, no drug 47 +/− 4.
The next series in a line: plasma half life. To be noted: in vivo.
The next series has as its system white blood cells. The experiment in a line: growth of white blood cells in Ara-C treated mice compared to Neupogen (FIGS. 13, 14). It is filed as in vivo, mouse (C3Hhen). To be noted: twelve days following Ara-C. The procedure:
C3Hhen mice (female) were treated with 500 mg/kg Ara-C for two cycles—on days 0 and 10. During the second cycle of Ara-C dosing, Ara-C treated mice were injected with 10 mg/kg Compound A (SEQ ID NO:809), 10 mg/kg Neupogen®, alone or together (on days—1, 0, and 1 to 3). Control represents animals treated with Ara-C alone. Blood was collected from the tail vein into heparin-containing tubes at the onset of the experiment, and one day before and 1, 7 and 12 days following the second Ara-C dose. A total white blood cell count was obtained. The results represent the mean ± one S.D. of 6 animals/group.
C3Hhen mice (female) were treated with 500 mg/kg Ara-C for two cycles—on days 0 and 10. During the second cycle of Ara-C dosing, Ara-C treated mice were injected with 10 mg/kg Compound A (SEQ ID NO:809) (defined in Examples), 10 mg/kg Neupogen®, alone or together (on days—1, 0, and 1 to 3). Control represents animals treated with Ara-C alone. […] The increase in leukocytes (white blood cells) was determined relative to the number of cells counted the day before the second cycle Ara-C dose was administered. […]
FIG. 14 depicts the results of an experiment conducted under identical conditions, but the growth (increase in leukocyte count) relative to the number of cells counted in animals treated with Ara-C alone is illustrated.

In a further series the test system is leukocytes (neutrophils). The series is described as follows: mobilization of leukocytes (neutrophils) in mice (Table 8). It is filed as in vivo, mouse (Balb/C). Conditions: 25 mg/kg i.v. The procedure: Compound A was injected intravenously into Balb/C mice at 25 mg/kg. To obtain the data in Table 8, blood was collected through cardiac puncture and counted for the increase in white blood cells, and platelets.

Another series relates to Primitive BFU-E. The experiment in a line: 3H-thymidine suicide assay of primitive BFU-E in adherent layer of human LTC (Table 7). The format is cell-based. Conditions: 1 μg/ml, None: 48 +/− 4. From the text:
Primitive high proliferative potential colony forming cells (HHP-CFC) in an adherent layer in culture are usually in a quiescent state. This long term culture (LTC) is established seven to ten days after initiation of the LTC. The cells may be stimulated to proliferate by the addition of fresh medium. Both BFU-E (burst forming unit—erythroid precursor) cells and CFU-GM (colony forming unit—granulocyte-monocyte common precursor) cells of LTC may be maintained in a quiescent state by the mesenchymally derived stromal cells in an adherent layer, but can be reversibly stimulated into the cycle by the addition of fresh media. The ability of CXCR4 agonists such as SDF-1 and SDF-1 polypeptides to overcome this activation may be determined by adding it to the LTC during the medium change. Rapidly dividing cells will accumulate proportionally more of a cytotoxic agent, such as radioactive thymidine, and as a result are preferentially killed.
The results depicted in Table 7 illustrate the ability of SDF-1, and SDF-1(1-14)-(G)4-SDF-1(55-67)-Lys20/Glu24-cyclic amide (SEQ ID NO:809) and SDF-1(1-14)-(G)4-SDF-1(55-67) acid (SEQ ID NO:806) to repress the proliferation of clonogenic erythroid and granulopoitic progenitors (which differentiate into erythrocytes, platelets, monocytes/macrophages and neutrophils) in an in vitro LTC-IC (long-term culture-initiating cells) assay. […]

On to “H2N-Lys-Pro-Val-Ser-Leu-Ser-Tyr-Arg-Cys-Pro-Cys-Arg-Phe-Phe-[Gly-Gly-Gly-Gly]-Leu-Lys-Trp-Ile-Gln-Glu-Tyr-Leu-Glu-Lys-Ala-Leu-Asn-NH2 (H-KPVSLSYRCPCRFFGGGGLKWIQEYLEKALN-NH2; lactam 20-24; cysteine pairing not given here) [Compound A]”, for which the “% CELL KILLED” value in series [1] was 5 +/− 3%. The plasma half life result in “plasma half life” is “not more than 2 hours”. For the same substance, the “increase in leukocytes relative to Ara-C alone” value with white blood cells is reported as “approximately 7.5 fold”. The Neutrophils is on record as 3.159 +/− 0.761 10^9/l with leukocytes (neutrophils) (Day 2, untreated day 0: 0.968 +/− 0.311); 3.209 +/− 0.735 10^9/l in the series on leukocytes (neutrophils) (Day 3); 1.592 +/− 0.961 10^9/l in the series with leukocytes (neutrophils) (Day 5, untreated day 5: 0.893 +/− 0.371); 2.513 +/− 2.733 10^9/l in the series on leukocytes (neutrophils) (Day 8). The Lymphocytes in the series on leukocytes (neutrophils) (Day 2, untreated day 0: 4.78 +/− 0.88) was 3.15 +/− 1.075 10^9/l; in the series with leukocytes (neutrophils) (Day 3) it was 3.371 +/− 1.113 10^9/l; in the series with leukocytes (neutrophils) (Day 5, untreated day 5: 6.540 +/− 0.970), 5.325 +/− 0.771 10^9/l; in the series on leukocytes (neutrophils) (Day 8) it was 4.072 +/− 1.386 10^9/l. The Platelets with leukocytes (neutrophils) (Day 2, untreated day 0: 1099 +/− 50) is on record as 1044 +/− 65 10^9/l; in the series on leukocytes (neutrophils) (Day 3), 977 +/− 152 10^9/l; with leukocytes (neutrophils) (Day 5, untreated day 5: 937 +/− 169), 882 +/− 88 10^9/l; with leukocytes (neutrophils) (Day 8) it was 1111 +/− 124 10^9/l. Further, the “% CELL KILLED after 3H-Thymidine” value in the series on Primitive BFU-E is 2 +/− 4%.
